# Some structures have more than one record in an assay (separate samples or runs), and their calls can disagree.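 Compound tested at a single concentration for 48 hours in 96-well plates; a percent growth value below 10 was scored as active.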 Not every entry of the source has a single result; some have several. Only these are listed. There may be further records. This drug was run again and again over the years, at the concentration stated with the values; each value is one run. Counts like (3×) say how often a value occurs here.
# Tested on: LOX IMVI melanoma
# Test: NCI-60 one-dose screen, 48 h (100 = growth as untreated, 0 = no growth, -100 = all killed)
structure (smiles),measurement,setting,value
COc1cccc2c1C(=O)c1c(O)c3c(c(O)c1C2=O)C[C@@](O)(C(=O)CO)C[C@@H]3OC1CC(N)C(O)C(C)O1 (stereo partly drawn),growth,"0.25 µM, runs of 2010","inactive: 21.1, 11.9, 22.7, 15.3, 20.2 (2×), 17.6, 15.4, 26.5 (2×), 22.9, 13.4, 14.4, 16.3, 19.5, 10.3, 14.3, 10.4, 30.4, 30.2, 21.4, 34.4, 39.7, 32.9, 32.4, 34.1, 25.8, 43.4, 28.4, 36.7, 18.7, 19.8, 12.7, 21.7, 17.9, 21.3, 22.4, 23.6, 27, 18.5, 23.5, 19.4, 18% and active: 9.57%, 9.86%"
same,growth,"0.25 µM, runs of 2011","inactive: 25.1 (2×), 25.8, 19.5 (2×), 26.7, 22.7 (3×), 19.9, 20.2, 23.5, 19.6, 25.7, 27.2, 28.2, 27.5, 18.5 (2×), 29, 24.1, 31.4 (2×), 26.4, 21.3, 32, 21.7, 30.3, 20.5 (2×), 27.4, 15, 18.7 (2×), 19.1, 10.7, 17.9, 16, 18.8, 13.3, 12.9, 22.5 (2×), 14.3, 12.1, 22.6, 19.4, 25.6, 33.9, 18.6, 15.1, 21.1, 16.8% and active: 9.04%"
same,growth,"0.25 µM, runs of 2012","inactive: 19.8, 11.7, 10.2, 20.6, 19.1, 20 (2×), 19.6, 27 (3×), 29.8, 15.3, 13.9, 15.7, 10.9, 11.4, 12.6, 13.6, 20.9, 17.7 (2×), 22.3, 22.7, 19.5, 19.4, 15.6, 32, 25.3, 38, 24.4 (2×), 25.2, 29.2, 23.5, 25, 36.2, 30.4, 28.2 (2×), 30.2 (3×), 25.9, 25.5, 27.3, 13, 14.4, 11.9, 16.4, 20.4, 14.1, 21.4, 19.3% and active: 7.05, 9.57, 5.89, 9.5, 7.21, 8.72, 9.91, -23.5%"
same,growth,"0.25 µM, runs of 2013","inactive: 16.4 (2×), 14.4, 22.6, 24.5 (2×), 14.3, 30.1, 23.2, 23.5, 18.6, 30.4, 24.4, 31.4, 22.9 (2×), 19.9, 28.8, 22.8, 22.5, 25.3, 22.4, 34.6, 23.6, 15.8, 14.6, 22.1, 20.8, 24.1, 19.7, 23, 19.6 (2×), 25.2, 29, 23.7, 25.1, 26.7, 34.9, 39.3, 24.7, 30.7, 27.3, 26.5, 21.7, 20, 33.9, 11, 17.9, 20.9, 16, 14.1 (2×), 22.3, 15.4, 14.7, 11.6, 21.1%"
same,growth,"0.25 µM, runs of 2014","inactive: 14.6 (2×), 23.2, 20.6, 16.7, 15.8, 18.8, 15 (2×), 21.9 (3×), 17.8, 11.9 (2×), 31, 15.4 (2×), 11.6 (3×), 18.3, 25.4, 13.9, 22.6, 25.3, 15.7, 11.8, 13.2, 11.1, 11, 19.9, 18.7, 16.2, 12.5, 19.2, 15.3, 12 (2×), 10.4, 18.6 (2×), 19.3 (2×), 11.5, 13.4 (2×), 10.1, 17.7, 10.9 (3×), 22.8, 13.6, 15.6, 16.4, 10.5, 19.7, 19.5, 13, 11.4, 23.1, 17.9, 14.4% and active: 8.08, 6.37, 7.3, 7.84, 9.54, 9.6, 3.92, 5.71, 7.6, 8.88, 7.79%"
same,growth,"0.25 µM, runs of 2015","inactive: 17.6, 13.3 (3×), 20 (2×), 21.9 (2×), 18, 14.1 (2×), 16.2 (3×), 12, 17.1, 10.8, 11.7, 16.8 (2×), 11, 15.8, 12.3, 22.7, 18.7 (2×), 11.3, 15.2 (2×), 20.8, 12.2, 27, 15.3, 13 (2×), 29.1, 13.2, 11.6, 13.7, 19, 16.7 (2×), 25.1, 12.7 (2×), 14.4, 33.6, 11.8, 23.1, 14.7, 28.6, 23.2 (3×), 27.4, 19.8, 31.9, 30.2, 15.6, 17.7, 15.1, 18.5, 18.8, 22.4, 23.6, 19.3, 19.7, 22.1% and active: 2.63, 7.19, 1.1, 8.24, 6.96, 9.97, 6.94, 8.51, 8.68%"
same,growth,"0.25 µM, runs of 2016","inactive: 21.3 (2×), 20.6, 23.5 (2×), 27.1 (3×), 26.4, 36.3, 15.1 (2×), 18.6, 22.8 (2×), 25.7, 12, 15.9, 22.9, 28.1, 11.1, 11.9, 15.7, 16.4, 13.2, 11.3, 13.7, 11.2, 11.8, 15 (2×), 18.7 (2×), 20 (2×), 10.8, 15.4, 10.7, 25, 25.2, 35, 26.9, 32.7, 22.7, 29.2 (2×), 31.2, 29.4, 26.7, 26.6, 24.4, 24.8 (2×), 27.2, 20.4, 20.1, 21.1, 28.2, 24.5, 24.3, 18, 23.6 (2×), 22.6, 29.5, 22.3 (2×), 17.8, 22.1, 23.3, 23.9, 24.6, 25.1, 19.6, 17.1, 22% and active: 4.51%, 9.87%, 5.87%"
same,growth,"0.25 µM, runs of 2017","inactive: 20.6 (2×), 22.1 (3×), 22.5, 21.4 (2×), 16.2 (2×), 15.2, 15, 16.6, 15.8, 15.3 (2×), 19.3 (2×), 12.6, 12.7, 18.7, 18.8 (2×), 15.4 (3×), 18.5 (3×), 18.1, 25.8, 29.2, 22.4 (2×), 23.6, 12.1, 17.9, 32.9, 41.8, 11.5, 16.8, 15.7 (2×), 18, 23.2 (2×), 17.8 (2×), 13.3, 18.3, 17.6, 15.9, 14.6, 18.9, 21.9, 12, 12.2, 13.4, 11.3, 19.1, 22.7, 20.2, 19.8, 24.4, 23.3, 25.3, 28.3, 27.1, 25.2, 19.6% and active: 9.77%, 9.33%, 7.62%"
same,growth,"0.25 µM, runs of 2018","inactive: 20.8, 18 (3×), 19.7 (2×), 20, 24.3, 17.9, 13.3 (2×), 18.3, 20.6, 25, 28.9, 22.1, 27, 18.1, 11.5, 12, 16.2 (2×), 26.7, 25.7, 20.9, 24 (2×), 15.7, 21.1, 28.3, 17.8, 26.1, 22.8, 34.6, 32, 16.6, 27.1, 13.9, 13.4, 27.8, 22.5, 20.4, 18.9, 25.2, 31.2, 36.1% and active: 5.95%"
same,growth,"0.25 µM, runs of 2019","active: -0.554, -0.752, 8.37, 4.48, 6.24, 0.235, 8.51, 9.68, 3.18, 6.06% and inactive: 13.2, 10.1, 13.9, 22, 20.6, 14.6, 22.3 (2×), 13.3, 14.1, 14.7, 10.5 (2×), 12.2, 11, 11.1, 13.8, 10.4, 19, 18.5, 10.6, 20.4, 21.1, 19.2, 16, 12.4, 16.8, 26.9, 16.2, 30, 18.1, 10.3, 16.4, 19.3, 20%"
same,growth,"0.25 µM, runs of 2020","active: 9.29, 9.46, 5.3, 9.12, 8.46% and inactive: 19.4, 15, 12.6 (2×), 14.6, 12.9, 10.8, 10.6, 19.9, 12, 14.4, 22.6, 18.8, 14.7, 23.1, 26.9, 20%"
same,growth,"0.25 µM, runs of 2021","inactive: 10.9, 22.4, 15.7, 16.5, 16.4, 13.3, 14.1 (2×), 12.7, 12, 12.5, 11.2, 10.2, 10.6, 11.5, 13.6, 12.3, 12.8% and active: 2.56, 2.85, 4.19, 2.25, -4.73, 9.67, 3.26, 6.69, 7.5, 4.57, 5.88, 9.24, 0.211, 0.344, 4.14, 8.48, 0.456, 4.91, 5.15, 3.33, 7.85, 1.08, -4.9, 8.76, 7.3, -26.4, -52, -5.61, 8%"
same,growth,"0.25 µM, runs of 2022","active: -61.6, -64.3, -66.4, -26.4, 9.99, -0.243, 9.48, 5.24, 9.91, 4.72, 0.283, 7.93, 2.59, 6.65% and inactive: 15, 16.2, 20.4, 15.7, 27.8, 25.9, 13, 34.2, 27.3, 52.6, 11.6%"
same,growth,"25 µM, runs of 1991","active: -56.1, -51.1, -50.2, -51.8, -66.9, -48.6, -33.2, -36.6, -20.8, -42.2, -20.5, -44.1, -72.9, -67.1, -76.6, -75.5, -77.3%"
same,growth,"25 µM, runs of 1992","active: -55, -34.4, -67.6 (2×), -63.1, -64, -76.3, -49.4, -46.9, -77.5 (2×), -72.5, -29, -58.9, -33.3 (2×), -38.5, -62.6 (2×), -80.8, -48.3, -100, -43.7, -50.3, -83.4, -54.6, 3.94, -67.7, -32, 5.38, -85, -93.2, -67.4, -73.9, -77.8, -43.8, -76, -76.9, -58, -83 (2×), -67.8, -78.7, -42.7, -23.2, -4.64, -27.9, -4.81, -58.8 (2×), -76.8, -79.8, -55.1, -82.8, -78.6, -40.8, -69.4, -83.2, -30.7, -39.2, -46.4, -62.8, -62.9, -57.7, -38.3, -87.8, -70.8 (2×), -54.9, -82.7, -68.7, -73.4 (2×), -37.8, -80.7, -60.9, -69.9, -64.7, -59.1, -82.4, -67.2, -63.7, -76.7, -91, -69.8, -72.6, -31.5, -54.4, -73.1, -60.4, -80.1, -74.7, -89.1, -81.8, -85.6, -72.8, -64.3, -77.6, -86.5, -74.8, -52.2, -79.5, -54.2, -89.8, -86.9, -81.5, -61.5, -60.1, -59.7, -39.6, -49.3, -78.5, -68.8, -65.3, -75.3%"
same,growth,"25 µM, runs of 1993","active: -66, -82.3, -50.8, -46.1, -75.3, -80.7, -41.5, -78, -72.7, -86.7, -63.1, -10.3, 1.17, -87.1, -82.2, -77, -56.4, -35.8, -68.6, -64.7, -35.7, -23.2, -92.8, -71.7, -71, -67.9, -77.8, -37.5, -22.5, -45.9, -78.1, -23.5, -51.5, -26, -53, -7.69, -82.4%"
same,growth,"25 µM, runs of 1994","active: -41.4, -49.7, -34.5, -37.4, -78.1, -34.1, -72.7, -86.1, -70.4, -1.52, -38.8, -46.7, -21.3, -82.1, -51.1, -24, -48.3, -69.7, -69.3, -50.4, 4.55, -39, -77, -75.2, -80.9, -71.9, -100% and inactive: 77.2%, 11.4%, 91.2%"
same,growth,"25 µM, runs of 1995","active: -58.2, -53.7, -48.2, -51.9, -86.7, -89.5, -67, -60.7, -56.9 (2×), -48.8, -72.3, -94.4, -80.9, -86.9, -73.4, -55.1, -27.1, -93.9, -49.9, -45.1, -13.5, -35.3, -13.1, -56.2, -42.1, -54.9, -65.6, -61.3, -18, -71.4, -32.6, -49.5, -17.3%"
same,growth,"25 µM, runs of 1996","active: -38.5, -48.8, -15.2, -21.6, -73.9, -27.5, 1.66, -15.5, 2.17, 4.29, -4.79, -46.3, 6.07, -31, -35.9, -41.6, 2.47, -63.7, -44.1, -73.3, -52.5 (2×), -54.5, -65.2 (2×), -61.7 (2×), -44.8, -85.5, -61.1 (2×), -61.4, -38.8, -31.4, 0.573, -53.6, -42.7, -31.6, -41.2, -27, -47.5, -63.1, -48.9, 5.75, -64.7, -70, -42.4, 3.78, -68.5, -39.7, -48.2, -37% and inactive: 92.4%, 39.2%"
same,growth,"25 µM, runs of 1997","active: -50, 1.34, -40.2, -55.7, 0.898, -49.2, -25.4, -18.8, -48.9, -34.3, -50.5, -19, -66.9, -52.5, -31.1, -20.1, -51.6, -42.7, -16.5, -23.4, -64.8, -78.4, -67.1, -32.6, -17.1, -48.3, -46.1, -2.75, -60.8, -66, -74.8% and inactive: 16.7%, 15.3%, 13.6%"
same,growth,"25 µM, runs of 1998","active: -68.1, -12.2, -55.9, 2.75, -27.8, -39.5, -84.9, -56.2, -50.3, -50.7 (2×), -43.9, 0.618, -67.3, -68.6, -74.2, -80.4, -36.2, -2.85, -70.4, -27.9, -5.14% and inactive: 10.3%"
same,growth,"25 µM, runs of 1999","active: -100 (3×), -78.8, -24, -45.1, -31.6, -76.8, 0.276, -73.5, 2.84, -32.5, 2.66, -73.8, 0.562, -9.22, 0.05%"
same,growth,"25 µM, runs of 2000","active: -75.9%, -100%, -39.8%"

# — PubChem BioAssay (NCI)
